Experimental data: the antibiotic and cytotoxicity screens of Wong et al. (2023)
The list shows a part of the results.

Key:
HSkMC = human skeletal muscle cells; test: cytotoxicity call (relative viability < 0.9); conditions: 10 µM
HepG2 = test: cytotoxicity call (relative viability < 0.9); conditions: 10 µM
S. aureus RN4220 = test: growth inhibition call (relative growth <= 0.2); conditions: 50 µM

COc1ccc(NC(=O)N(C)C[C@H]2OCCCC[C@@H](C)Oc3ccc(NC(=O)Nc4c(C)noc4C)cc3C(=O)N([C@@H](C)CO)C[C@H]2C)cc1
inactive: cytotoxicity call (HSkMC) | cytotoxicity call (HepG2) | growth inhibition call (S. aureus RN4220)

C[C@@H]1CN([C@H](C)CO)C(=O)c2cc(NS(=O)(=O)c3ccccc3)ccc2O[C@@H](C)CCCCO[C@@H]1CN(C)C(=O)NC1CCCCC1
inactive: cytotoxicity call (HSkMC) | cytotoxicity call (HepG2) | growth inhibition call (S. aureus RN4220)

O=C([O-])C(O)C(O)C(O)C(O)C(O)CO.O=C([O-])C(O)C(O)C(O)C(O)C(O)CO.[Ca+2] (configuration not stated)
inactive: cytotoxicity call (HSkMC) | cytotoxicity call (HepG2) | growth inhibition call (S. aureus RN4220)

C[C@@H]1CCCCO[C@H](CN(C)C(=O)c2ccncc2)[C@H](C)CN([C@@H](C)CO)C(=O)c2cc(NS(C)(=O)=O)ccc2O1
inactive: cytotoxicity call (HSkMC) | cytotoxicity call (HepG2) | growth inhibition call (S. aureus RN4220)

COc1ccc(S(=O)(=O)Nc2cccc3c2O[C@@H](CN(C)Cc2ccc(Oc4ccccc4)cc2)[C@H](C)CN([C@@H](C)CO)C3=O)cc1
inactive: cytotoxicity call (HSkMC) | cytotoxicity call (HepG2) | growth inhibition call (S. aureus RN4220)

NCCC(=O)N[C@@H](Cc1cnc[nH]1)C(=O)O
inactive: cytotoxicity call (HSkMC) | cytotoxicity call (HepG2) | growth inhibition call (S. aureus RN4220)

O=C1O[C@H](c2ccccc2)[C@H](c2ccccc2)N2[C@H]1[C@@H](C(=O)Nc1nc3ccccc3s1)[C@]1(C(=O)Nc3ccccc31)[C@H]2c1ccc(O)cc1
inactive: cytotoxicity call (HSkMC) | cytotoxicity call (HepG2) | growth inhibition call (S. aureus RN4220)

Cc1noc(C)c1NC(=O)Nc1cccc2c1O[C@H](CN(C)S(=O)(=O)c1cn(C)cn1)[C@@H](C)CN([C@@H](C)CO)C2=O
inactive: cytotoxicity call (HSkMC) | cytotoxicity call (HepG2) | growth inhibition call (S. aureus RN4220)

C[C@H]1CN([C@@H](C)CO)C(=O)c2cc(NS(=O)(=O)c3cccs3)ccc2O[C@H]1CN(C)Cc1ccncc1
inactive: cytotoxicity call (HSkMC) | cytotoxicity call (HepG2) | growth inhibition call (S. aureus RN4220)
